PubChem BioAssay AID488969 (Vanderbilt High Throughput Screening Facility, 2010)
Whole data set: some 110,000 compounds, median “z-score” near -0.1, cut for the highest 2% near 2. The list shows a part of the results.

biological target: Metabotropic glutamate receptor 8 (Rattus norvegicus) (UniProt P70579); assay: rat mGluR8 modulators via GIRK flux, primary screen, cell-based, thallium flux, HTS (AID 488969); conditions: HEK293 rat mGluR8, GIRK (G protein-gated inwardly rectifying potassium channel) thallium flux, FluoZin2; at 10 µM; stronger effect = higher value; submaximal glutamate (EC20) added with thallium
Chain of UniProt P70579 (P70579 whole entry, looked up): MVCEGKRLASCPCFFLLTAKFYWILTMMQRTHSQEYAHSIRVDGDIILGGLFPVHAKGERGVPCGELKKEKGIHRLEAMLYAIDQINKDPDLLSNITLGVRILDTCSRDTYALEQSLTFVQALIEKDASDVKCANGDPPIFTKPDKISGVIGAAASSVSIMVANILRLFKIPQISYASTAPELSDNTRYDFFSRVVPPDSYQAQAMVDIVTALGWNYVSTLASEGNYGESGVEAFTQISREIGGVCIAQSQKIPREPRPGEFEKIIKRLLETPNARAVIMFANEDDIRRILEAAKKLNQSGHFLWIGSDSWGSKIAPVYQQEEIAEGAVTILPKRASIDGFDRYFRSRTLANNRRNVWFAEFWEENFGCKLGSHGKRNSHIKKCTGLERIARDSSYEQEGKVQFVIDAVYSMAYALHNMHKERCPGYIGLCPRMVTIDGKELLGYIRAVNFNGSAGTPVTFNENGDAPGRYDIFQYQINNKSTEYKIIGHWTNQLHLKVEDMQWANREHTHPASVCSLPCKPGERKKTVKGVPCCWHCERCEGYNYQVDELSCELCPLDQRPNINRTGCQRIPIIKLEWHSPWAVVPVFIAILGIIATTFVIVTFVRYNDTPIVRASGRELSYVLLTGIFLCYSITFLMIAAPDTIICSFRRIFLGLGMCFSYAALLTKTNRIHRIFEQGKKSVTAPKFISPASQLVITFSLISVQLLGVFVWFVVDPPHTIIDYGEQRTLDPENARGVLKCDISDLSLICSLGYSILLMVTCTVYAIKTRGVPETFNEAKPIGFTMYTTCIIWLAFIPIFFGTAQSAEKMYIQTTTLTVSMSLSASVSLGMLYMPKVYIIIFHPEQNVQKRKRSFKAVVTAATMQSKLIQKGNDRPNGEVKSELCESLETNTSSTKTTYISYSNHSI

Row | Compound | z-score
1 | CCOC(=O)N1CCN(CC(=O)Nc2ccc(Oc3ccccc3)cc2)CC1 | -0.329
2 | Cc1ccc(N2C(=O)N(CC(=O)c3cc(C)ccc3C)C(=O)C2C)cc1 (stereo unspecified) | -0.366
3 | O=C(O)CCc1nc(-c2ccc(Cl)cc2)no1 | -0.537
4 | CN=C(c1ccco1)n1c(=S)nc(-c2ccco2)n(C)c1=S | -0.741
5 | CCN(CC(=O)NC1CCS(=O)(=O)C1)S(=O)(=O)c1ccc(C)c(C)c1 (stereo unspecified) | 0.324
6 | Cc1cc(C)n(-c2nc(SCCN(C)C)c3c4c(sc3n2)CCCC4)n1 | 0.869
7 | COc1ccc2nc(NC(=O)C3CCCN(S(=O)(=O)c4cccc5nsnc45)C3)sc2c1 (stereo unspecified) | -0.156
8 | CC1=NN(c2ccccc2)C(=O)C1(C)[N+](=O)[O-] (stereo unspecified) | -0.504
9 | COc1ccccc1C(=O)Nc1nnn(C)n1 | -0.546
10 | COC(=O)C1C(=O)c2c(n[nH]c2C)CC1(C)C (stereo unspecified) | -0.0844
11 | O=S(=O)(c1ccc(NC(=S)NCCc2ccccc2)cc1)N1CCOCC1 | -0.502
12 | O=C(NCCNc1ccc([N+](=O)[O-])cc1C(F)(F)F)c1cccc(F)c1 | -0.7
13 | Cc1nc2sccn2c(=O)c1Cl | 0.324
14 | Cc1onc(-c2c(F)cccc2Cl)c1C(=O)NCCc1ccc(S(N)(=O)=O)cc1 | 0.0213
15 | O=C(COC(=O)c1ccccc1OCc1ccccc1Cl)NC1CC1 | -0.211
16 | COCCCN(C(=O)Nc1cccc(Cl)c1)C(C)c1ccccn1 (stereo unspecified) | -0.414
17 | Cc1ccc(CNC(=O)c2ccccc2N)cc1 | 0.0428
18 | O=C(CN1C(=O)C2C3C=CC(C3)C2C1=O)NCc1ccc2c(c1)OCO2 (stereo unspecified) | -0.188
19 | O=C1CC(Nc2ccc(N3CCOCC3)cc2)C(=O)N1c1ccccc1F (stereo unspecified) | -0.0538
20 | Cc1cc(C)c2[nH]c(=O)c(=O)[nH]c2c1 | -0.178
21 | COc1ccc(Cl)cc1NC(=S)NCc1ccc(S(N)(=O)=O)cc1 | 0.19
22 | Cc1ccc(-c2ccc(CCC(=O)O)n2CC2CCCO2)cc1 (stereo unspecified) | -0.326
23 | CC(=O)OC(C(=O)NCc1ccc(F)cc1)c1ccccn1 (stereo unspecified) | 0.383

Row | Compound | z-score
24 | C=CCn1c(SCc2ccc(C#N)cc2)nnc1-c1cccc(Cl)c1 | 0.08
25 | Cc1ccc2c(c1C)NC(C)CC2C (stereo unspecified) | 0.329
26 | COc1ccc(CCN2C(=O)C3C4C=CC(C4)C3C2=O)cc1OC (stereo unspecified) | 0.0364
27 | COc1ccc(CC(=O)NC(c2ccccc2)c2ccccc2)cc1S(=O)(=O)N1CCOCC1 | -0.307
28 | CN(C)c1nc2n(c(=O)n1)C(C#N)CS2 (stereo unspecified) | 1.73
29 | Cc1ccc(Nc2c([N+](=O)[O-])c(=O)n(C)c3ccccc23)cc1C | -0.846
30 | Clc1cccc(Oc2ncc(CN3CCOCC3)s2)c1 | -0.0832
31 | O=C(NCCCn1ccnc1)/C(=C\c1cccnc1)NC(=O)c1ccccc1Br | -0.132
32 | CC(C)CNC(=O)COC(=O)c1c2c(nc3ccccc13)/C(=C/c1cccs1)CC2 | -0.0542
33 | COc1ccc(/C=N/NC(=O)CN(Cc2ccccc2)S(=O)(=O)c2ccc3c(c2)OCCO3)cc1 | -0.12
34 | CCCSc1nc(=O)n2cc(C)ccc2n1 | 0.0306
35 | COc1ccc(C(=O)Nc2ccc(S(=O)(=O)Nc3nccnc3OC)cc2)cc1 | 0.0667
36 | Cc1nc2ccccn2c1C(=O)NCCCN1CCOCC1 | 0.145
37 | COc1ccc(CC(=O)Nc2cc(C)ccn2)cc1 | 0.301
38 | Cc1nn(Cc2ccc(Cl)cc2)c(C)c1NC(=O)c1cc(-c2ccc3c(c2)OCO3)on1 | -0.856
39 | O=c1c2c(-c3cccs3)csc2ncn1-c1ccc(Br)cc1 | -0.297
40 | O=C(CCCC(=O)NC1CCCC1)NC1CCCC1 | -0.0851
41 | CC1(C)Cc2c(c(N3CCOCC3)nc3sc4c(N5CCOCC5)nnnc4c23)CS1 | 0.0342
42 | Cc1oc2c(c1C(=O)NCCO)CCCC2 | -0.0774
43 | O=C(NCCc1c[nH]c2ccccc12)C1CCC(Cn2c(=S)[nH]c3ccccc3c2=O)CC1 (stereo unspecified) | -0.106
44 | Cc1cccc(Cc2cnc(NC(=O)CN3C(=O)/C(=C/c4ccccc4)SC3=S)s2)c1 | -0.269
45 | O=C(N/N=C/c1c(Nc2cccc(C(F)(F)F)c2)nc2ccccn2c1=O)c1ccccc1[N+](=O)[O-] | -0.178
46 | Cc1nn(Cc2ccc(F)cc2)c(C)c1NC(=O)c1cnn2c1NC(c1ccccc1)CC2C(F)(F)F (stereo unspecified) | -1.24

Row | Compound | z-score
47 | COC(=O)c1c(NC(=O)C2CCCO2)sc2c1CCC2 (stereo unspecified) | -0.297
48 | O=C(CSc1n[nH]c(-c2cccnc2)n1)Nc1ccccc1 | -0.272
49 | O=P(CCC(F)(F)F)(CCC(F)(F)F)CCC(F)(F)F | 0.101
50 | CCc1cccc(CC)c1NC(=O)COC(=O)c1ccc(F)c(S(=O)(=O)N(CC)CC)c1 | -0.307
51 | COc1ccc(NC(=O)Nc2ccc3nsnc3c2)cc1 | -0.43
52 | Cn1cccc1C(=S)N=P(C1CCCCC1)(N1CCOCC1)N1CCOCC1 | 0.184
53 | CCc1ccc(OCC(=O)OC2CCS(=O)(=O)C2)cc1 (stereo unspecified) | -0.358
54 | CC(=O)N1CCN(C(=O)c2ccc(-n3c(C)ccc3C)cc2)CC1 | -0.0344
55 | CCc1ccc(OCCCC(=O)O)c(Br)c1 | -0.107
56 | O=C(Nc1nc(-c2ccccc2)cs1)c1cccs1 | -0.61
57 | CCOC(=O)c1ccc(NC(=O)COC)cc1 | -0.598
58 | CCOC(=O)N1CCC(NC(=O)CN(C)S(=O)(=O)c2cc3c(cc2Cl)NC(=O)CO3)CC1 | -0.235
59 | CCn1cc([N+](=O)[O-])c(C(=O)N2N=C(c3ccc4ccccc4c3)CC2c2ccccc2O)n1 (stereo unspecified) | -0.147
60 | Cn1c(SCC(=O)N2CCCc3ccccc32)nnc1-c1c[nH]c2ccccc12 | 1.79
61 | Cc1cccc(CC(=O)N2CCN=C2SCc2ccc([N+](=O)[O-])cc2)c1 | -0.128
62 | CC(C(=O)N(C)C)N(C#N)c1nc(N(C)C)nc(N(C)C)n1 (stereo unspecified) | -0.636
63 | C=CC(C)N1C(=O)S/C(=C\c2ccc(N3CCOCC3)cc2C)C1=O (stereo unspecified) | -0.201
64 | Cc1cc2c(c(=O)n1Cc1ccco1)C(c1cccnc1)C(C#N)=C(N)O2 (stereo unspecified) | -0.157
65 | CCOC(=O)c1cccc(NC(=O)COc2ccc([N+](=O)[O-])cc2)c1 | -0.726
66 | Cc1nn(-c2ccc(F)cc2)c2sc(C(=O)O)cc12 | -0.216
67 | COCCNC(=O)c1c(N)n(/N=C/c2cccs2)c2nc3ccccc3nc12 | -0.00344
68 | COc1ccccc1NC(=O)c1ccc(NS(=O)(=O)c2ccc(F)c(Cl)c2)cc1 | -0.388
69 | Cc1ccc(Nc2ccc(C(=O)O)cc2N)cc1 | -0.183

Row | Compound | z-score
70 | Cc1cnc(NC(=O)Cc2c[nH]c3ccccc23)s1 | -0.194
71 | COc1ccc(-c2noc(C)c2-c2ccc3ccccc3n2)c(O)c1 | -0.699
72 | COc1cc(-c2ncc3ccccn23)cc(OC)c1OC | -0.125
73 | CCOC(=O)c1c(NC(C)=O)sc2c(OC)c(Br)ccc12 | -0.0923
74 | NS(=O)(=O)c1ccc(CNC(=O)/C=C/c2ccc(Cl)c(Cl)c2)cc1 | -0.113
75 | COc1ccc(OCCNc2cc(N3CCOCC3)ccc2[N+](=O)[O-])cc1 | -0.279
76 | CCc1ccc(C(C)NC(=O)c2ncn[nH]2)cc1 (stereo unspecified) | 0.153
77 | Clc1cccc(-c2cc3nc4c(c(N5CCNCC5)n3n2)CCCC4)c1 | 2.71
78 | COc1cc(C(=O)NCC(=O)n2nc(C)cc2C)cc(OC)c1OC | 0.256
79 | Cc1cc(C)n2cc(CSc3ncccc3C(=O)O)nc2n1 | 0.09
80 | Cc1ccc(OCc2nc(-c3ccccn3)no2)cc1 | 0.0238
81 | CC(C)Oc1ccc(C(=O)Nc2ccc(N3CCCC3)cc2)cc1 | -0.126
82 | COc1ccc(C(C(=O)NC2CCCC2)N(C(=O)c2ccco2)c2ccc3c(c2)OCO3)cc1OC (stereo unspecified) | 1.1
83 | COc1cc(N2CCCC2)c(OC)cc1/C=C(/C#N)c1ccc(F)cc1 | 0.791
84 | CCOC(=O)C1C(=O)C=C(Nc2ccccc2F)CC1c1ccccc1 (stereo unspecified) | -1.33
85 | Cc1ccc(C(=O)Nc2c(C)n(C)n(-c3ccccc3)c2=O)cc1S(=O)(=O)N1CCOCC1 | 0.139
86 | COc1cc(C(=O)Nc2ccc(-c3nc4cc(C)ccc4o3)c(O)c2)cc(OC)c1OC | -0.327
87 | COc1ccc(CCNS(=O)(=O)c2ccc(C3CNC(=O)C3)cc2)cc1OC (stereo unspecified) | -0.256
88 | COc1ccc(NC(=O)CCSc2nnc(C)s2)cc1 | -0.465
89 | N#CC(c1ccccc1)c1ccc2c(C(F)(F)F)cc(C(F)(F)F)nc2n1 (stereo unspecified) | 0.135
90 | COc1cc(OC)c(NC(=O)CCNC(=O)Cn2cnc3ccccc3c2=O)cc1Cl | 2.94
91 | CCCc1nnc(NC(=O)CCC(=O)NCc2ccccc2OC)s1 | 0.108
92 | O=C(NCc1ccccc1)C1CCCN(S(=O)(=O)c2cccs2)C1 (stereo unspecified) | -0.171

Row | Compound | z-score
93 | CCCNc1nc(C)c(C(C)=O)cc1C#N | -0.0837
94 | Cn1c(=O)c2c(nc(NCc3ccc4c(c3)OCO4)n2Cc2ccccc2Cl)n(C)c1=O | 0.17
95 | Cc1csc2nc(CNS(=O)(=O)c3ccc4c(c3)CCCC4)cn12 | -0.0983
96 | COc1ccccc1C(O)Cc1nc2ccccc2n1C (stereo unspecified) | -0.393
97 | CN(C)C(CNC(=O)c1cccc(OC(F)F)c1)c1ccco1 (stereo unspecified) | 0.0916
98 | CCC(=O)N1CCc2cc(S(=O)(=O)N3CCN(C(=O)c4ccco4)CC3)ccc21 | 0.953
99 | O=C(O)CONC(=O)c1cc(OCC(F)(F)F)ccc1OCC(F)(F)F | -0.0842
100 | COC(=O)c1ccc(OC(C)C(=O)c2ccc(C)cc2)cc1 (stereo unspecified) | -0.231
101 | Cc1ccc(C)c(N2CCN(S(=O)(=O)c3c(C)noc3/C=C/N(C)C)CC2)c1 | -0.559
102 | O=C(Nc1ccccc1)c1cc(S(=O)(=O)N2CCOCC2)cs1 | 0.0281
103 | O=C(c1cc2c(s1)CCCC2)N1CCN(C(=O)C2CCCO2)CC1 (stereo unspecified) | 0.655
104 | COc1ccc(-c2oc3ncnc(N)c3c2-c2ccccc2)cc1 | -0.565
105 | CC1(C)CN=C(NC2CCCCC2)S1 | 0.817
106 | COc1ccc(-c2cc(-c3ccccc3)c(C#N)c(S(C)=O)n2)cc1 (stereo unspecified) | -2.24
107 | COC(=O)c1cn(NC(=O)/C=C/c2ccc(OC)c(OC)c2)c(=O)c2ccccc12 | 0.446
108 | COc1ccc(-c2noc(Cc3ccccc3OC)n2)cc1 | -0.376
109 | CCOC(=O)c1ccccc1NC1c2ccccc2C(=O)N1c1cc(C)ccn1 (stereo unspecified) | -0.0859
110 | COc1cccc(-c2csc(N3CCN(CC(=O)NNC(=O)c4ccc(Cl)cc4)CC3)n2)c1 | 0.201
111 | O=C(Nc1cccc(F)c1)N1CC=C(n2c(=O)[nH]c3ccccc32)CC1 | -0.978
